# Source: the supplement of paper PMC12217912
# The list shows a part of the results. Sequences were assembled here from the parent chain. Values near 0.05 are background.
# B1: TEV protease; numbered along this chain (parent)
# chain: MGESLFKGPRDYNPISSSICHLTNESDGHTTSLYGIGFGPFIITNKHLFRRNNGTLVVQSLHGVFKVKDTTTLQQHLVDGRDMIIIRMPKDFPPFPQKLKFREPQREERICLVTTNFQTKSMSSMVSDTSCTFPSGDGIFWKHWIQTKDGQCGSPLVSTRDGFIVGIHSASNFTNTNNYFTSVPKNFMELLTNQEAQQWVSGWRLNADSVLWGGHKVFMVKPEEPFQPVKEATQL
# Variants of: B1
# Experiment: raw area under fraction-flipped curve 0-4 h after induction (AUC4h, not background-subtracted), DNA-recorder readout of cleavage of the substrate (dimensionless); higher = more cleavage of the substrate by the protease variant
# Details: temperature: 34 °C; time window: 0-4 h after rhamnose induction
# Experimental: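 In vivo DNA recorder in E. coli TOP10(DE3) ΔrhaA at 34 °C. Each TEVp single-site mutant (parent TEVp 0) is paired with a single-site variant of the 7-mer TEVs (canonical ENLYFQ|S). The substrate sits between flexible linkers in a Bxb1-sfGFP-TEVs-SsrA fusion, so cleavage stabilises Bxb1 and speeds flipping of a recombination array, read by NGS. The value is the raw area under the fraction-flipped curve over 0-4 h after rhamnose induction (AUC4h), with ≥20 reads per time point. It is not background-subtracted; inactive controls average about 0.047.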
# 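Further: Bxb1 expression induced with 0.2% (w/v) L-rhamnose at OD600 near 0.5, cultures sampled hourly, flipped fraction per protease–substrate barcode pair counted by paired-end Illumina sequencing.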
Variant,area with substrate ENLAFQS,area with substrate ENLCFQS,area with substrate ENLDFQS,area with substrate ENLEFQS,area with substrate ENLFFQS,area with substrate ENLGFQS,area with substrate ENLHFQS,area with substrate ENLIFQS,area with substrate ENLKFQS,area with substrate ENLLFQS,area with substrate ENLNFQS,area with substrate ENLPFQS,area with substrate ENLQFQS,area with substrate ENLRFQS,area with substrate ENLSFQS,area with substrate ENLWFQS,area with substrate ENLMFQS,area with substrate ENLVFQS,area with substrate ENLTFQS
MGESLFKGPRDYNPISCSICHLTNESDGHTTSLYGIGFGPFIITNKHLFRRNNGTLVVQSLHGVFKVKDTTTLQQHLVDGRDMIIIRMPKDFPPFPQKLKFREPQREERICLVTTNFQTKSMSSMVSDTSCTFPSGDGIFWKHWIQTKDGQCGSPLVSTRDGFIVGIHSASNFTNTNNYFTSVPKNFMELLTNQEAQQWVSGWRLNADSVLWGGHKVFMVKPEEPFQPVKEATQL [S17C],0.0632,0.0736,0.0535,0.0688,0.0889,0.0404,0.0746,0.095,0.076,0.0581,0.0606,0.0613,0.0534,0.0686,0.099,0.0654,–,–,–
MGESLFKGPRDYNPISGSICHLTNESDGHTTSLYGIGFGPFIITNKHLFRRNNGTLVVQSLHGVFKVKDTTTLQQHLVDGRDMIIIRMPKDFPPFPQKLKFREPQREERICLVTTNFQTKSMSSMVSDTSCTFPSGDGIFWKHWIQTKDGQCGSPLVSTRDGFIVGIHSASNFTNTNNYFTSVPKNFMELLTNQEAQQWVSGWRLNADSVLWGGHKVFMVKPEEPFQPVKEATQL [S17G],0.0656,0.0389,0.0628,–,0.0861,0.0732,0.065,–,0.0851,0.0851,0.0663,0.0589,0.0761,0.0692,0.0538,0.0747,0.0659,0.101,–
MGESLFKGPRDYNPISSSGCHLTNESDGHTTSLYGIGFGPFIITNKHLFRRNNGTLVVQSLHGVFKVKDTTTLQQHLVDGRDMIIIRMPKDFPPFPQKLKFREPQREERICLVTTNFQTKSMSSMVSDTSCTFPSGDGIFWKHWIQTKDGQCGSPLVSTRDGFIVGIHSASNFTNTNNYFTSVPKNFMELLTNQEAQQWVSGWRLNADSVLWGGHKVFMVKPEEPFQPVKEATQL [I19G],0.0541,0.0623,0.0548,0.0572,0.0699,0.0547,0.0632,–,0.0709,0.0633,0.0558,0.0642,0.0495,0.0735,0.0488,0.0684,0.0512,–,0.0663
MGESLFKGPRDYNPISSSICELTNESDGHTTSLYGIGFGPFIITNKHLFRRNNGTLVVQSLHGVFKVKDTTTLQQHLVDGRDMIIIRMPKDFPPFPQKLKFREPQREERICLVTTNFQTKSMSSMVSDTSCTFPSGDGIFWKHWIQTKDGQCGSPLVSTRDGFIVGIHSASNFTNTNNYFTSVPKNFMELLTNQEAQQWVSGWRLNADSVLWGGHKVFMVKPEEPFQPVKEATQL [H21E],0.0613,0.0661,0.0664,0.0641,0.0801,–,0.0658,0.0766,0.0601,0.0674,0.0588,0.0608,0.0644,0.0699,0.0604,0.0553,0.0729,0.0627,–
MGESLFKGPRDYNPISSSICFLTNESDGHTTSLYGIGFGPFIITNKHLFRRNNGTLVVQSLHGVFKVKDTTTLQQHLVDGRDMIIIRMPKDFPPFPQKLKFREPQREERICLVTTNFQTKSMSSMVSDTSCTFPSGDGIFWKHWIQTKDGQCGSPLVSTRDGFIVGIHSASNFTNTNNYFTSVPKNFMELLTNQEAQQWVSGWRLNADSVLWGGHKVFMVKPEEPFQPVKEATQL [H21F],0.0657,0.0474,0.059,0.0597,0.0731,–,0.11,0.0647,0.0791,0.0582,0.0651,0.0543,–,0.0514,0.0598,0.0598,0.0384,–,0.0743
MGESLFKGPRDYNPISSSICILTNESDGHTTSLYGIGFGPFIITNKHLFRRNNGTLVVQSLHGVFKVKDTTTLQQHLVDGRDMIIIRMPKDFPPFPQKLKFREPQREERICLVTTNFQTKSMSSMVSDTSCTFPSGDGIFWKHWIQTKDGQCGSPLVSTRDGFIVGIHSASNFTNTNNYFTSVPKNFMELLTNQEAQQWVSGWRLNADSVLWGGHKVFMVKPEEPFQPVKEATQL [H21I],0.0423,0.0688,0.0615,0.0703,0.0925,–,–,0.0778,0.0767,0.0668,0.0631,0.0603,–,0.0591,0.0689,0.0661,0.0668,0.0473,–
MGESLFKGPRDYNPISSSICHLGNESDGHTTSLYGIGFGPFIITNKHLFRRNNGTLVVQSLHGVFKVKDTTTLQQHLVDGRDMIIIRMPKDFPPFPQKLKFREPQREERICLVTTNFQTKSMSSMVSDTSCTFPSGDGIFWKHWIQTKDGQCGSPLVSTRDGFIVGIHSASNFTNTNNYFTSVPKNFMELLTNQEAQQWVSGWRLNADSVLWGGHKVFMVKPEEPFQPVKEATQL [T23G],0.0704,0.0503,0.0645,0.0704,0.0732,0.0845,0.0429,0.0605,0.0681,0.0684,0.0573,0.0626,0.0552,0.067,0.0459,0.047,0.0322,–,–
MGESLFKGPRDYNPISSSICHLWNESDGHTTSLYGIGFGPFIITNKHLFRRNNGTLVVQSLHGVFKVKDTTTLQQHLVDGRDMIIIRMPKDFPPFPQKLKFREPQREERICLVTTNFQTKSMSSMVSDTSCTFPSGDGIFWKHWIQTKDGQCGSPLVSTRDGFIVGIHSASNFTNTNNYFTSVPKNFMELLTNQEAQQWVSGWRLNADSVLWGGHKVFMVKPEEPFQPVKEATQL [T23W],0.0752,0.064,0.0624,0.109,0.0875,–,0.0693,0.0874,0.0766,0.0756,0.0511,0.0586,0.0665,0.0706,0.0599,0.0846,0.067,0.0681,0.059
